# Laboratory results: the supplement of paper PMC8728848
# The other results are listed elsewhere or left out.
# B1: CaSRK1 (Capsicum annuum) (protein)
# chain: MALCKIFPFAFILLSCSCYLISGQRFDYPTANLSTTWINSVSAPHSIDYTDGSRIRAILLRGTFGPRYACGFYCNGNCESYLFAIFIVQTNSASQITSPAIGFPQVVWSANRNNPVKINSTLQLTAEGDLVLRDADGTLAWSTNTAGKSVAGLSLTDEGNLALFDSKNATVWQSFDHPTDALVPGQKLVPGMKLTASVSRTNWTAGGLFALSAIDNGLVAFVESNPPQKYFEASVGGSNTSGGSNYVKYLNGSLTLFTHSADTTELILISITPASSAQYMKLESNGHLKVYEWTSRGWREVDDLLTGFRGECNYPTVCGRYGICTMGQCSCPTSSSSRTYFRPIDVRRPSLGCSEVTKLTCQNTKKHSPLEVEDVDYFAFKAGISDTDLNTCKRACLEKCSCKAAFFRSGLNSSRTRGDCYLPTEIFSIMNNEKDRTRYDSVAFIKVQV
# How the values were obtained:
# Experiment in all cases: glycan array binding signal (z-score within array); higher = stronger binding
# Details in all cases: glycan notation: IUPAC condensed, linker removed
# [1] = target: Neu5Ac(a2-3)Gal(b1-3)GalNAc(b1-3)Gal(a1-4)Gal(b1-4)Glc
# Method in brief: (§1)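 The binding signal is a Z-score computed within each array and averaged over linkers. Arrays of the same protein sequence at different concentrations or buffers were also averaged together. Data originate from 3228 arrays in the Consortium for Functional Glycomics database, kept only where the protein sequence was available.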
# [2] = target: Neu5Ac(a2-3)Gal(b1-3)GalNAc(b1-4)[Neu5Ac(a2-3)]Gal(b1-4)Glc
# Method in brief: as §1
# [3] = target: Neu5Ac(a2-3)Gal(b1-3)GalNAc(b1-4)[Neu5Ac(a2-8)Neu5Ac(a2-3)]Gal(b1-4)Glc
# Method in brief: as §1
# [4] = target: Neu5Ac(a2-3)Gal(b1-3)GalNAc6S
# Method in brief: as §1
# [5] = target: Neu5Ac(a2-3)Gal(b1-3)GlcNAc
# Method in brief: as §1
# [6] = target: Neu5Ac(a2-3)Gal(b1-3)GlcNAc(b1-2)Man
# Method in brief: as §1
# [7] = target: Neu5Ac(a2-3)Gal(b1-3)GlcNAc(b1-2)Man(a1-3)[GlcNAc(b1-4)][Neu5Ac(a2-3)Gal(b1-3)GlcNAc(b1-2)Man(a1-6)]Man(b1-4)GlcNAc(b1-4)GlcNAc
# Method in brief: as §1
# [8] = target: Neu5Ac(a2-3)Gal(b1-3)GlcNAc(b1-2)Man(a1-3)[Neu5Ac(a2-3)Gal(b1-3)GlcNAc(b1-2)Man(a1-6)]Man(b1-4)GlcNAc(b1-4)GlcNAc
# Method in brief: as §1
# [9] = target: Neu5Ac(a2-3)Gal(b1-3)GlcNAc(b1-3)Gal(b1-3)GlcNAc
# Method in brief: as §1
# [10] = target: Neu5Ac(a2-3)Gal(b1-3)GlcNAc(b1-3)Gal(b1-4)GlcNAc
# Method in brief: as §1
# [11] = target: Neu5Ac(a2-3)Gal(b1-3)GlcNAc(b1-3)GalNAc
# Method in brief: as §1
# [12] = target: Neu5Ac(a2-3)Gal(b1-3)GlcNAc(b1-4)Gal(b1-4)Glc
# Method in brief: as §1
# [13] = target: Neu5Ac(a2-3)Gal(b1-3)GlcNAc(b1-6)GalNAc
# Method in brief: as §1
# [14] = target: Neu5Ac(a2-3)Gal(b1-3)GlcNAc6S
# Method in brief: as §1
# [15] = target: Neu5Ac(a2-3)Gal(b1-3)[Fuc(a1-4)]GlcNAc
# Method in brief: as §1
# [16] = target: Neu5Ac(a2-3)Gal(b1-3)[Fuc(a1-4)]GlcNAc(b1-3)Gal(b1-3)[Fuc(a1-4)]GlcNAc
# Method in brief: as §1
# [17] = target: Neu5Ac(a2-3)Gal(b1-3)[Fuc(a1-4)]GlcNAc(b1-3)Gal(b1-4)[Fuc(a1-3)]GlcNAc
# Method in brief: as §1
# [18] = target: Neu5Ac(a2-3)Gal(b1-3)[GlcNAc(b1-6)]GalNAc
# Method in brief: as §1
# [19] = target: Neu5Ac(a2-3)Gal(b1-3)[Neu5Ac(a2-6)]GalNAc
# Method in brief: as §1
# [20] = target: Neu5Ac(a2-3)Gal(b1-3)[Neu5Ac(a2-6)]GlcNAc(b1-3)[Fuc(a1-3)[Gal(b1-4)]GlcNAc(b1-6)]Gal(b1-4)Glc
# Method in brief: as §1
# [21] = target: Neu5Ac(a2-3)Gal(b1-3)]Neu5Ac(a2-3)Gal(b1-4)]GlcNAc
# Method in brief: as §1
# [22] = target: Neu5Ac(a2-3)Gal(b1-4)Glc
# Method in brief: as §1
# [23] = target: Neu5Ac(a2-3)Gal(b1-4)GlcNAc
# Method in brief: as §1
# [24] = target: Neu5Ac(a2-3)Gal(b1-4)GlcNAc(b1-2)Man
# Method in brief: as §1
# [25] = target: Neu5Ac(a2-3)Gal(b1-4)GlcNAc(b1-2)Man(a1-3)[GlcNAc(b1-4)][Neu5Ac(a2-3)Gal(b1-4)GlcNAc(b1-2)Man(a1-6)]Man(b1-4)GlcNAc(b1-4)GlcNAc
# Method in brief: as §1
# [26] = target: Neu5Ac(a2-3)Gal(b1-4)GlcNAc(b1-2)Man(a1-3)[Neu5Ac(a2-3)Gal(b1-4)GlcNAc(b1-2)Man(a1-6)]Man(b1-4)GlcNAc(b1-4)GlcNAc
# Method in brief: as §1
# [27] = target: Neu5Ac(a2-3)Gal(b1-4)GlcNAc(b1-2)Man(a1-3)[Neu5Ac(a2-3)Gal(b1-4)GlcNAc(b1-2)Man(a1-6)]Man(b1-4)GlcNAc(b1-4)[Fuc(a1-6)]GlcNAc
# Method in brief: as §1
# [28] = target: Neu5Ac(a2-3)Gal(b1-4)GlcNAc(b1-2)Man(a1-3)[Neu5Ac(a2-6)Gal(b1-4)GlcNAc(b1-2)Man(a1-6)]Man(b1-4)GlcNAc(b1-4)GlcNAc
# Method in brief: as §1
# [29] = target: Neu5Ac(a2-3)Gal(b1-4)GlcNAc(b1-2)[Neu5Ac(a2-3)Gal(b1-4)GlcNAc(b1-4)]Man(a1-3)[GlcNAc(b1-4)][Neu5Ac(a2-3)Gal(b1-4)GlcNAc(b1-2)[Neu5Ac(a2-3)Gal(b1-4)GlcNAc(b1-6)]Man(a1-6)]Man(b1-4)GlcNAc(b1-4)GlcNAc
# Method in brief: as §1
# [30] = target: Neu5Ac(a2-3)Gal(b1-4)GlcNAc(b1-2)[Neu5Ac(a2-3)Gal(b1-4)GlcNAc(b1-4)]Man(a1-3)[GlcNAc(b1-4)][Neu5Ac(a2-3)Gal(b1-4)GlcNAc(b1-4)Man(a1-6)]Man(b1-4)GlcNAc(b1-4)GlcNAc
# Method in brief: as §1
# [31] = target: Neu5Ac(a2-3)Gal(b1-4)GlcNAc(b1-2)[Neu5Ac(a2-3)Gal(b1-4)GlcNAc(b1-6)]Man(a1-6)[Neu5Ac(a2-3)Gal(b1-4)GlcNAc(b1-2)Man(a1-3)]Man(b1-4)GlcNAc(b1-4)GlcNAc
# Method in brief: as §1
# [32] = target: Neu5Ac(a2-3)Gal(b1-4)GlcNAc(b1-2)[Neu5Ac(a2-3)Gal(b1-4)GlcNAc(b1-6)]Man(a1-6)[Neu5Ac(a2-3)Gal(b1-4)GlcNAc(b1-2)Man(a1-3)][GlcNAc(b1-4)]Man(b1-4)GlcNAc(b1-4)GlcNAc
# Method in brief: as §1
# [33] = target: Neu5Ac(a2-3)Gal(b1-4)GlcNAc(b1-3)Gal
# Method in brief: as §1
# [34] = target: Neu5Ac(a2-3)Gal(b1-4)GlcNAc(b1-3)Gal(b1-3)GlcNAc
# Method in brief: as §1
# [35] = target: Neu5Ac(a2-3)Gal(b1-4)GlcNAc(b1-3)Gal(b1-4)GlcNAc
# Method in brief: as §1
# [36] = target: Neu5Ac(a2-3)Gal(b1-4)GlcNAc(b1-3)Gal(b1-4)GlcNAc(b1-2)Man(a1-3)[Neu5Ac(a2-3)Gal(b1-4)GlcNAc(b1-3)Gal(b1-4)GlcNAc(b1-2)Man(a1-6)]Man(b1-4)GlcNAc(b1-4)GlcNAc
# Method in brief: as §1
# [37] = target: Neu5Ac(a2-3)Gal(b1-4)GlcNAc(b1-3)Gal(b1-4)GlcNAc(b1-3)Gal(b1-4)GlcNAc
# Method in brief: as §1
binder,measurement,setting,value
B1,glycan array binding signal (z-score),[1],-0.324
same,glycan array binding signal (z-score),[2],0.791
same,glycan array binding signal (z-score),[3],-0.39
same,glycan array binding signal (z-score),[4],-0.096
same,glycan array binding signal (z-score),[5],-0.491
same,glycan array binding signal (z-score),[6],-0.223
same,glycan array binding signal (z-score),[7],-0.549
same,glycan array binding signal (z-score),[8],0.342
same,glycan array binding signal (z-score),[9],-0.475
same,glycan array binding signal (z-score),[10],-0.552
same,glycan array binding signal (z-score),[11],-0.354
same,glycan array binding signal (z-score),[12],0.467
same,glycan array binding signal (z-score),[13],-0.414
same,glycan array binding signal (z-score),[14],-0.162
same,glycan array binding signal (z-score),[15],-0.323
same,glycan array binding signal (z-score),[16],-0.322
same,glycan array binding signal (z-score),[17],-0.201
same,glycan array binding signal (z-score),[18],0.145
same,glycan array binding signal (z-score),[19],0.393
same,glycan array binding signal (z-score),[20],0.272
same,glycan array binding signal (z-score),[21],0.462
same,glycan array binding signal (z-score),[22],-0.089
same,glycan array binding signal (z-score),[23],-0.189
same,glycan array binding signal (z-score),[24],7.73
same,glycan array binding signal (z-score),[25],-0.597
same,glycan array binding signal (z-score),[26],-0.578
same,glycan array binding signal (z-score),[27],-0.48
same,glycan array binding signal (z-score),[28],-0.598
same,glycan array binding signal (z-score),[29],-0.421
same,glycan array binding signal (z-score),[30],0.06
same,glycan array binding signal (z-score),[31],0.059
same,glycan array binding signal (z-score),[32],-0.593
same,glycan array binding signal (z-score),[33],-0.591
same,glycan array binding signal (z-score),[34],-0.518
same,glycan array binding signal (z-score),[35],0.418
same,glycan array binding signal (z-score),[36],1.33
same,glycan array binding signal (z-score),[37],-0.207
